± gives the standard deviation of the averaged measurements. This is one part of the list.
tested on: PfAP2-G AP2 domain (GST-tagged); experiment: gcPBM binding intensity (ln(normalized median fluorescence intensity)); higher = stronger DNA binding
How it was run: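 Probes on an Agilent 4 × 180k array were primer-extended, double-stranded and 36 bp long, taken from intergenic genomic regions, with negative controls added. GST-tagged P. falciparum DNA-binding domains from E. coli, about 25 μg on average, were applied to the array for 1 h in 1× PBS containing 1% milk, 0.2 mg/ml BSA, 0.5% salmon testes DNA and 0.03% Triton X-100. Binding intensity, obtained after Alexa488 anti-GST antibody detection and a 488 nm scan, is the highest Masliner-normalised natural-log median intensity across replicate spots of either probe orientation.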

Sequence	gcPBM binding intensity (ln)
TTGAATATGGTTACATGTACGTATCAATATTTTTTA [XGTACX_site4247]	11.4 ± 0.78
ATATAACTCAAGGGCACACATATACCTTTCCTTTTT [CACACA_site4390]	10.4 ± 0.23
GGAACGTATATTTTCACACACTCTCAAAAGTACAAG [CACACA_site2301]	11.3 ± 0.91
TGTGCACGTTCTGTGACACACATTTAAATGTGCTTA [CACACA_site176]	10.4 ± 0.21
TATACATTATTATTATGTACTTAAATATATATTATA [XGTACX_site5173]	11.1 ± 0.83
ATTAACACATTTAAGTGTACATATATAAATATATAT [XGTACX_site7098]	11.4 ± 0.83
TGTTGTATATCTCTATATAGCTATATTGTATATATA [TGCATGCA_negctrl_site323]	9.79 ± 0.13
TATATTATTTATTAGACACACATTATTAAAATATTT [CACACA_site4737]	9.92 ± 0.17
CCTTGATATATATAAAGTACATATATATATATATAT [XGTACX_site4325]	11.3 ± 0.86
GTGAAATTATTTCCGTGTACACATAAATATATATTT [XGTACX_site3989]	11.8 ± 0.99
AAACTTATAAAAAGTAGTACCATAAAATAATACATA [XGTACX_site6523]	11.4 ± 0.81
ATATATATATATAGTTGTACTTAATTTTATATGTTA [XGTACX_site5256]	11.3 ± 1
AAATAATTATTTATCACACATATGTATTTATATATA [CACACA_site4589]	10.2 ± 0.21
CTTTTTTTAATGATAACACACATGTTGTGCATAGAC [CACACA_site3270]	10.3 ± 0.2
AATATGTGAATATAATCACACACAATACGGAAACAC [CACACA_site8875]	10.7 ± 0.49
AAAGAAGGATAATAATGTACAAGCAAAAAAATAAAA [XGTACX_site466]	10.8 ± 0.5
ACATATATTTCAAAGTGTACGCACAATTTTTTTTAC [XGTACX_site6166]	11.7 ± 1
AACATATATATAATATGTACATAATATATATAAATG [XGTACX_site1161]	11.2 ± 0.69
TGCTTATATGTTGTTACACACTAAAATAGTTAGATA [CACACA_site1277]	10.1 ± 0.21
AATACAGTTAGAGAAAGTACACAACTAATATACATA [XGTACX_site8814]	11.4 ± 0.66
TTAGTTTCCCAAATATGTACATAAATATAAATCATA [XGTACX_site2746]	11.2 ± 0.64
TTATTATTTTTTAACACACACATATATATTATATCT [CACACA_site4906]	9.93 ± 0.071
GTAAGAACACTTTTGTGGTTACTTAAAAGTGTATAT [GTGCAC_negctrl_site422]	10.6 ± 0.41

Sequence	gcPBM binding intensity (ln)
ATTTCAACAAATATAACACACAATGGATAAGAATAA [CACACA_site1974]	10.06 ± 0.099
TTTTTTTTTTTTGATGCACACACCTGAACGAGTTAA [CACACA_site317]	10.2 ± 0.5
TATTTTTATATATGACGTACTCTACAATTATTAATG [XGTACX_site5818]	11.2 ± 0.78
AAAATATGTATGTAAAGTACTAATATACAAATTTTT [XGTACX_site5186]	10.9 ± 0.52
TTAATTATAAGAAAAAGTACTCATTACATTATAGAA [XGTACX_site678]	11.3 ± 0.76
ATATAAATATTCCACACACACACAAAAAAAAAAAAA [CACACA_site7678]	10 ± 0.33
TAGTCGTTTTTTTAATGTACTCACGCATAATATAAT [XGTACX_site6499]	11.5 ± 1.1
ATTATTTTTTTTGTTACACACATGACTTATTTTTAT [CACACA_site3228]	10.19 ± 0.014
AAAGGATATAGACACACACACACATATATATATATA [CACACA_site2200]	10.3 ± 0.47
GTTCAAAATATGAACACACACATATAGATTTATATA [CACACA_site7054]	9.995 ± 0.021
ATCATTTTTAAAGGAACACACAAAAAAAATTAGAAT [CACACA_site1370]	10.2 ± 0.12
CATATACATCCACATACACACATACACCCATACACA [CACACA_site5038]	10.5 ± 0.49
TGAAAAGTAAAATACACACACATAATATAATTTATA [CACACA_site1989]	9.91 ± 0.18
TGTTATTATTTGTACACACACATATATATCCTTGTT [CACACA_site3616]	11.3 ± 0.75
GGCAACATTTGAAACACACACACATACAAACAAACA [CACACA_site3307]	10.5 ± 0.48
TCTATATGTTGATTCACACATAAAGAATAAATAAAA [CACACA_site6017]	10.1 ± 0.16
CATACATACCTATATACACACATATAAAATAATATA [CACACA_site7290]	10.1 ± 0.23
AGTATACAGATATATACACACATATTTATATTTATA [CACACA_site6394]	9.89 ± 0.12
ATAAATATATTTTATAGTACATAAATATCAAAAAAA [XGTACX_site2334]	11 ± 0.61
ATTTTGATGCATGGGTTGCACTAACTTTTGCCCAGA	10.3 ± 0.27
AAACAATACTGATATTGTACATAATAAAAAAAAATA [XGTACX_site3330]	10.9 ± 0.52
TATAATATATTATATACACACATTATGAAATCCACA [CACACA_site1330]	10.04 ± 0.071
AACACGCGCAGACACACACACACACCCACATATATA [CACACA_site2205]	10.3 ± 0.25

Sequence	gcPBM binding intensity (ln)
TATATGAACTTATATACACACCATTTTTGTAAATCT [CACACA_site4547]	10.03 ± 0.028
TACTTAAAATATTTAACAAATAAATAAATAAATAAA [XGTACX_negctrl_site523]	9.91 ± 0.58
TGAAACCGTTACATGTGTACATATGTTACACATAAT [XGTACX_site7250]	11.4 ± 0.71
TTCTTTAATACTTATTGTACAATATAATAATCACAA [XGTACX_site6364]	11.2 ± 0.81
TACTATATAAGTAAGGCATGCATGCCGATTTTTTTA [TGCATGCA_site100]	9.715 ± 0.035
AAAAAAAAAAAAATATGTACTTATTTTTATGTTAAA [XGTACX_site8802]	11.5 ± 0.99
ATATTTTTATTTTCTTTACACACCACATAATTTTTT [CACACA_site4060]	10.3 ± 0.21
ATTAGATATGTAAACTAAAATTATATTCATGATAAT [TGCATGCA_negctrl_site182]	9.73 ± 0.16
TCTAACAACATGCGCACACACATGAATATTCATATT [CACACA_site1540]	10.5 ± 0.33
TCACATCTTATATACTGTACATTTCGAATATAAATT [XGTACX_site2508]	10.9 ± 0.43
TTTCTTTTACATATTTGTACATATATAAATTTATAT [XGTACX_site1787]	11 ± 0.44
GCCAAAAGGATATGCACACACACACCCATATATATA [CACACA_site2198]	10.2 ± 0.16
TATATATAGAAACACACACACACCAAAGCGTAGCGC [CACACA_site62]	9.95 ± 0.028
ATTTACAAAAGGAAAGTGCAAACATGTGATTAAACA [CACACA_negctrl_site714]	10.14 ± 0.085
AAAAATGAATTATTTTGTACATATATATATATATAT [XGTACX_site3410]	10.6 ± 0.49
AATAATTGTTAAAGTTGTACTATACGTATATAAGAA [XGTACX_site1432]	11.2 ± 0.54
CATTATCATGTTTTTTGTACTCATAATAAAAAGCAG [XGTACX_site2056]	11.3 ± 0.85
CAAGGAACCGGACACACACACATAAATGTATTTATA [CACACA_site4574]	10.7 ± 0.38
ACATATGACTATAATACACACTTGTATTATTAATAT [CACACA_site6951]	9.98 ± 0.13
AACTTATTTAAATTCACACATATATAAAATACTTAT [CACACA_site4394]	9.98 ± 0.028
ATCAATTTAATTTATTGTACTTGTTTGTTTTTTTAT [XGTACX_site7544]	11.2 ± 0.7
GATAACATAATATGTTGTACATAAAAATTTTTATCA [XGTACX_site1969]	11.2 ± 0.76
ATAAAGATATGACACACACACATATTATAGATATAT [CACACA_site7434]	10.12 ± 0.085

Sequence	gcPBM binding intensity (ln)
TATGTTTTTACGTGTGTGCACTTTGTAGAGATAAGT	10.5 ± 0.33
ATTTTAATTACATATACACACAAAGGTTCATAACAA [CACACA_site9008]	10.2 ± 0.28
TAATTTAAACAAAAAAGTACAAATTTCTTTTTATTA [XGTACX_site5244]	11.2 ± 1
ATTATTTTATTATAGTGTACTTTTTTAATCAAAGGA [XGTACX_site8921]	11.5 ± 0.93
AATTTTATTACTTTTACACACCTATATATTATTCAT [CACACA_site3273]	10.1
TTTTAAAAAAAATATAAAAAAAGAGGAGGGATGGTA [GTGCAC_negctrl_site35]	9.67 ± 0.071
TACTCATAATATTGATAATTAAAAAGATAAACTATT [XGTACX_negctrl_site299]	9.83 ± 0.11
AAGAGTAAAATATGGTTGCACTAAAAATATATATTT [GTGCAC_site9484]	10.2 ± 0.21
TATATTTGTTGACACACACACAAAAAAAAAAAAAAA [CACACA_site7211]	10.2 ± 0.57
GTCTACTACACTAAATGTACAAGAAAAAAGAAAAAA [XGTACX_site4660]	11 ± 0.71
TTATAGAGCTTATTCACACATACATATGTATTTATA [CACACA_site5775]	9.92 ± 0.16
ATAATAAAAATATACTGTACATTTGTAAATTCTTTT [XGTACX_site4655]	10.7 ± 0.47
TATATATATATATAATGTACACATTTTTATAACTAT [XGTACX_site5714]	11.3 ± 0.73
AAAGATGGAAAAAAAAATTTGTGTGTTGAAAGATAT [GTGCAC_negctrl_site19]	9.98 ± 0.028
AAAATACAATTTCTAGCACACAAAATATTATTATAA [CACACA_site9056]	9.88 ± 0.11
GCGTTGTTTTTAAAAAGTACATTTTTATATAAGTTA [XGTACX_site8780]	11.2 ± 0.86
TATAAAATTCTGACTTGTACATGTGAAAAATAATTA [XGTACX_site1396]	11 ± 0.52
CTTAATATATGTGGCACACATGTGGAGTCCTATTAA [CACACA_site4281]	10.7 ± 0.47
TATTATTCAAAATTTGTGCACAAAATTAAAGGAACA	10.5 ± 0.35
TTTTTAAATAAATGTTTTTATTATATACATATCAAT [TGCATGCA_negctrl_site423]	9.74 ± 0.071

Reference: the supplement of paper PMC11417369
